# Source: the supplement of paper PMC8728848
# The list shows a part of the results.
# Legend:
# [1] = biological target: Neu5Gc(a2-8)Neu5Gc(a2-6)Gal(b1-4)GlcNAc; assay: glycan array binding signal (z-score within array); higher = stronger binding; details: glycan notation: IUPAC condensed, linker removed
# How it was run: (§1)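 Arrays were curated from the Consortium for Functional Glycomics database, 3228 in total, and kept only where the protein sequence was available. Binding is expressed as a within-array Z-score. This score was averaged across arrays of the same protein sequence at different concentrations or buffers and across linkers, and negative values can be read as non-binding.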
# [2] = biological target: Neu5Gc(b2-6)Gal(b1-4)GlcNAc; assay: as above; details: glycan notation: IUPAC condensed, linker removed
# How it was run: as §1
binder,measurement,setting,value
FimA-N1 (Actinomyces oris) (protein) MHHHHHHSSGVDLGTENLYFQSNATETPNYGNIKTDATGSLVIHKHLTGGGKDIGTPTGTAQNADDKGPAVEGVVFTAYPITDINLKDPAGWDTISNLSRTGVPDSACANPAAPTLGAHQFGTPKVSPATTKEGLATITEMPVQAYLVCETTTPGDIVQKAKPFVVTIPHPNTAAGADGQWIYDVNVYPKNEAIDVDKTIQAQK,glycan array binding signal (z-score),[1],-0.334
same,glycan array binding signal (z-score),[2],-0.298
